In all, about 410,000 compounds went through this assay and about 5,000 (1.2%) were called active. Inconclusive results, whose numbers are uncertain, are shown with a selection of clear calls. Calls follow the shape of the dose curve; as a rule, active = well fitted inhibition curve with a large enough effect; inconclusive = small, poorly fitted or top-dose-only effect; inactive = no such curve, though single readings can be large or run the other way. Potencies of inconclusive entries are doubtful fits and often do not repeat.
Test: qHTS for Inhibitors of TGF-b; also: nearly all actives have a fitted effect of over 65% in size
Conditions: HepG2 CAGA-GFP TGF-b/SMAD3 reporter, GFP fluorescence, 18 h, TGF-beta stimulated, 500 pg/mL final; series mostly up to 46.1 µM; activity, negative = inhibition: at the top concentration
Summary of the method: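 Smad-responsive CAGA-GFP expression was quantified in HEPG2 cells exposed to compounds and 500 pg/mL final TGF-beta for 18 h at 37 degrees C; unstimulated wells defined full inhibition.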
% is scaled to controls: 0 for no effect and ±100 for the full control effect; potency is read from the fitted curve at half-maximal effect; tags tell the direction and shape of the fitted curve.

SMILES | Potency | activity, negative = inhibition
CCc1nc2ccc(C(=O)Nc3cccc(OC)c3)cn2c1N(C)Cc1ccc(OC)cc1 | inconclusive: 25.1 µM [inhibitor, single point] | 
COc1cc2c(cc1NC(=O)CSc1nnc(Cc3cccs3)n1C)oc1ccccc12 | inconclusive: 17.8 µM [inhibitor, single point] | 
CSc1ccc(CN2CCCC(N3CCN(c4ccccc4)CC3)C2)cc1 (stereo not drawn) | inconclusive: 11.2 µM [inhibitor, partial curve] | 
O=C1NC(c2ccc3c(c2)OCO3)Nc2ccccc21 (stereo not drawn) |  | inactive: 0%
Cc1ccc(O)c(NC(=O)C2CCCN2C(=O)OCc2ccccc2)c1 (stereo not drawn) | inconclusive: 35.5 µM [inhibitor, partial curve, poor fit] | 
Cc1c(O)ccc2c(-c3ccccc3)cc(=O)oc12 |  | inactive: -12.4%
NC(=O)c1ccc[n+](Cc2cccc3ccccc23)c1 |  | inactive: -27.5%
Cc1ccc(NC(=O)NCCOCCn2c(=O)oc3ccccc32)cc1C | inconclusive: 8.91 µM [inhibitor, partial curve] | 
CCOc1ccc(CNC(=O)c2ccccc2NC(=O)c2nsc3ccccc23)cc1 | inconclusive: 2.24 µM [inhibitor, partial curve] | 
COc1cc(/C=C2\C(=O)ON=C2c2ccccc2)cc(Br)c1O | inconclusive: 35.5 µM [inhibitor, single point] | 
O=C(NN=Cc1ccccc1C(=O)O)c1cccc(S(=O)(=O)Nc2cccc(C(F)(F)F)c2)c1 |  | inactive: -11.3%
O=C(COc1ccccc1)NCc1ccccc1 |  | inactive: -0.008%
Cc1ccccc1OCC(=O)Nc1ccccc1N1CCOCC1 |  | inactive: 3.12%
CC(C)(C)c1ccc(C(=O)NC2(C(F)(F)F)NC(=O)N(CCc3ccccc3)C2=O)cc1 (stereo not drawn) | active: 10 µM | 
CC1CCCC(C)N1C(=O)c1cccc2c1-c1ccccc1/C2=N/O (stereo not drawn) |  | inactive: -1.72%
COc1ccc(C2=NN(C(C#N)c3ccc(OC)cc3)C(c3ccccc3)C2)cc1 (stereo not drawn) |  | inactive: -11.8%
C[C@@H]1CN(S(=O)C(C)(C)C)[C@@H](CCO)/C1=C\c1ccccc1 (stereo partly drawn) |  | inactive: 3.87%
CN(Cc1ccccc1)C1=CC(=[N+]2CCCCC2)CC(C)(C)C1 | active: 11.2 µM | 
N#CC1=C(N)N2C(=C(C#N)C1c1cccc(Br)c1)Nc1ccccc12 (stereo not drawn) | active: 3.16 µM | 
CC(C)(C)C(=O)NC(=S)NNC(=O)c1ccc(-c2ccccc2)cc1 | active: 10 µM | 
CCOC(=O)c1c(C)[nH]c(C(=O)OCC(=O)NCc2ccc(OC)c(OC)c2)c1C | inconclusive: 12.6 µM [inhibitor, partial curve, poor fit] | 
Cc1onc(-c2ccc(Cl)cc2)c1-c1ccnn1S(=O)(=O)c1cccc(C(F)(F)F)c1 | inconclusive: 35.5 µM [inhibitor, single point] | 
CCOc1ccccc1N(C)C(=O)Cn1nc(Cc2ccncc2)c2ccccc2c1=O | inconclusive: 35.5 µM [inhibitor, single point] | 
CN(C)/C=C1/Oc2c(ccc3ccccc23)C1=O |  | inactive: 13.1%
O=[N+]([O-])c1ccc(-n2nnnc2-c2ccccc2)c([N+](=O)[O-])c1 | active: 10 µM | 

SMILES | Potency | activity, negative = inhibition
CCCCNC(=S)NCC(c1ccccc1)c1c[nH]c2ccccc12 (stereo not drawn) | inconclusive: 35.5 µM [inhibitor, single point] | 
CCC(O)(CC)C(=O)N/N=C/c1cc(Br)cc(Br)c1O | inconclusive: 35.5 µM [inhibitor, single point] | 
Cc1nc(SCc2nc3ccc(Br)cc3[nH]2)c2oc3ccccc3c2n1 | inconclusive: 35.5 µM [inhibitor, single point] | 
C/C=C/Cn1cccc(C(=O)Nc2ccc(OC)cc2)c1=O | inconclusive: 5.62 µM [inhibitor, single point] | 
Clc1ccccc1CSc1cc2c(nn1)-c1ccccc1CC2 |  | inactive: 5.91%
CCCCCC(=O)N1C[C@@H](n2cc(C3CC3)nn2)[C@H](O)C[C@@H]1c1ccc(C)cc1 |  | inactive: -22.1%
Cc1cnc(C(=O)Nc2ccc(OC(F)(F)F)cc2)cn1 |  | inactive: 0.451%
CCOC(=O)c1c(NC(=O)C(NCCN(C)C)c2ccccc2)sc2c1CCCC2 (stereo not drawn) | inconclusive: 35.5 µM [inhibitor, single point] | 
CC1=CC(=O)Nc2ncccc2O1 | inconclusive: 25.1 µM [inhibitor, single point] | 
COc1ccc2nc(NC(=O)c3cccc(OCc4c(C)noc4C)c3)sc2c1 |  | inactive: -20.7%
N#Cc1cccc(NC(=O)COC(=O)c2cc(S(=O)(=O)Nc3ccccc3Cl)ccc2O)c1 | inconclusive: 11.2 µM [inhibitor, partial curve, poor fit] | 
Cc1ccc(NC(=O)c2ccc(C(C)(C)C)cc2)cc1-n1cnnn1 |  | inactive: -4.63%
CC(=O)c1cccc(-c2ccnc3c2CC(C(=O)NCc2cccs2)O3)c1 (stereo not drawn) | inconclusive: 7.94 µM [inhibitor, partial curve, poor fit] | 
CCOC(=O)N1CCC(NC(=O)c2cnn(-c3ccc(C)cc3C)c2C2CCN(C(=O)OC(C)(C)C)CC2)CC1 | inconclusive: 5.62 µM [inhibitor, single point] | 
CCN1/C(=C/c2sc(-c3ccccc3C)c[n+]2C)Sc2ccccc21 | active: 2.51 µM | 
CCc1c(C)sc(NC(=O)CC#N)c1C#N | inconclusive: 35.5 µM [inhibitor, single point] | 
CC(C)(C)CC(=O)NC(=S)NCc1ccco1 |  | inactive: -2.68%
COc1ccc(C(CNC(=O)c2cccc(S(=O)(=O)Nc3ccc(Br)cc3)c2)N(C)C)cc1 (stereo not drawn) | inconclusive: 22.4 µM [inhibitor, single point] | 
S=c1[nH]nc(-c2ccccn2)n1/N=C/c1cccc2ccccc12 |  | inactive: 11%
CS(=O)(=O)c1cccc(-c2nnc(NC(=O)c3ccc4c(c3)OCCO4)o2)c1 |  | inactive: -1.37%
O=C(NCC(F)(F)F)Nc1nnc(C(F)(F)F)s1 | inconclusive: 22.4 µM [inhibitor, single point] | 
C=CCNC(=O)c1ccc([N+](=O)[O-])c(Cl)c1 |  | inactive: 20.5%
Cc1cc(C)cc(NC(=O)CSc2nc3ncccc3[nH]2)c1 | inconclusive: 14.1 µM [inhibitor, single point] | 
COc1ccc(N2CCN(S(=O)(=O)CCNC(=O)c3cc(=O)c4ccccc4o3)CC2)cc1 | inactive | 
CC1CCN(c2ccccc2NC(=S)NC(=O)c2ccco2)CC1 | inconclusive: 35.5 µM [inhibitor, single point] | 

SMILES | Potency | activity, negative = inhibition
CCOC(=O)c1sc(NC(=O)Nc2ccccc2Cl)cc1C | inconclusive: 31.6 µM [inhibitor, single point] | 
CSCCC(=O)Nc1nc(-c2ccccn2)cs1 | inconclusive: 8.91 µM [inhibitor, partial curve] | 
Cc1cc(C)cc(NC(=O)CSc2nc(=O)[nH]c3c2CCC3)c1 |  | inactive: -0.575%
COc1cc(NC(=O)Cn2ccn(-c3cc(C)cc(C)c3)c(=O)c2=O)cc(OC)c1 |  | inactive: -1.52%
CCc1ccc(NC(=O)CC2C(=O)N(c3ccc(C)cc3)C(=O)N2C2CCCC2)cc1 (stereo not drawn) | inconclusive: 35.5 µM [inhibitor, single point] | 
Cc1cccn2c(=O)c(/C=C(\C#N)S(=O)(=O)c3ccccc3)c(N3CCCCC3)nc12 | inconclusive: 14.1 µM [inhibitor, partial curve, poor fit] | 
CC1=C(C(=O)NCc2ccccc2C)C2(CCCCCC2)OC1=O | inconclusive: 14.1 µM [inhibitor, single point] | 
O=C(NCc1cccnc1)c1cc(Sc2cccc(Cl)c2)nc2ccccc12 | active: 11.2 µM | 
CCOC(=O)c1ccc(NC(=O)Nc2c(C)n(C)n(-c3ccccc3)c2=O)cc1 | inconclusive: 12.6 µM [inhibitor, single point] | 
CSc1ccccc1OCc1cc(C(=O)N(C)Cc2ccc3nsnc3c2)no1 | inconclusive: 15.8 µM [inhibitor, single point] | 
c1ccc2c(N3CCCCC3)nc(N3CCCCC3)nc2c1 | inconclusive: 2.82 µM [inhibitor, partial curve, poor fit] | 
CCC(C)Sc1nc2c(c(=O)[nH]c(=O)n2C)n1CC(O)COc1ccccc1C (stereo not drawn) | inconclusive: 35.5 µM [inhibitor, single point] | 
COc1cc2nc(Nc3cccc(C)c3)nc(N)c2cc1OC | inconclusive: 14.1 µM [inhibitor, single point] | 
Cc1ccc(C(=O)NCC(c2ccco2)S(=O)(=O)c2cccs2)cc1C (stereo not drawn) | inconclusive: 11.2 µM [inhibitor, single point] | 
Cc1ccc(CNC(=O)[C@]2(C)CCC[C@@]3(C)C4CC[C@@]5(C)C[C@]4(CCC32)CC5=O)cc1 (stereo partly drawn) | inconclusive: 14.1 µM [inhibitor, single point] | 
COc1ccc(C(=O)Nc2cc3c4c(c2)CC(=O)N4CCC3)c(OC)c1 |  | inactive: 14.4%
CN1CCN(CCCN2c3ccccc3Sc3ccc(S(=O)(=O)N(C)C)cc32)CC1 | inconclusive: 28.2 µM [inhibitor, single point] | 
CN(C)c1ccc(-c2nc(-c3cccs3)c(-c3cccs3)[nH]2)cc1 | inconclusive: 10 µM [inhibitor, partial curve, poor fit] | 
O=C1CC(NS(=O)(=O)c2ccc(F)cc2)CN1c1ccc2c(c1)OCCO2 (stereo not drawn) |  | inactive: -3.54%
CCNC(=S)Nc1scc(-c2ccccc2)c1C(=O)OCC | inconclusive: 35.5 µM [inhibitor, single point] | 
Cn1c(-c2ccccc2)c(C#Cc2ccc(N)cc2)c2ccccc21 | active: 3.55 µM | 
CCCn1c(SCC(O)c2ccccc2)nc2ccccc21 (stereo not drawn) | inconclusive: 2.24 µM [inhibitor, full curve, poor fit] | 
CCOc1ccccc1N1C(=O)CN(Cc2ccc(OC)c(OC)c2)C1=S |  | inactive: 5.39%

Source: PubChem BioAssay AID588855 (National Center for Advancing Translational Sciences (NCATS), 2011)
